{"source": "paper PMC10726135", "note": "The list shows a part of the results. At the low end of the ranking the order means little. Measured with an extract: partners may take part in the binding."}
{"molecular_target": "T1, HNF4alpha2 (COS-7 nuclear extract) (UniProt P41235)", "T1 sequence": "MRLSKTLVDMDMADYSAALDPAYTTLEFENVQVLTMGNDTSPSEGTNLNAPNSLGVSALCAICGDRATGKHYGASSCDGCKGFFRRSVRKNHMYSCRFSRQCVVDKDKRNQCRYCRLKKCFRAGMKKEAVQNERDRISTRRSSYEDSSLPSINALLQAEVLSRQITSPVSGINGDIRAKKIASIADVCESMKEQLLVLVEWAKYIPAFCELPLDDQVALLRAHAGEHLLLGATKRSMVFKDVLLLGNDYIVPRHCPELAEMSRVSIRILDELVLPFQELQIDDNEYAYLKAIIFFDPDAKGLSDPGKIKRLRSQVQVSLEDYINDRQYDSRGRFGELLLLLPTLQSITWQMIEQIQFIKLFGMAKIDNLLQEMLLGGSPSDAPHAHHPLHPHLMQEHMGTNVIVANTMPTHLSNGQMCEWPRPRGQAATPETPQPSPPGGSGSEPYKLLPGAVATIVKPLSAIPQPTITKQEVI", "test": "protein-binding microarray", "conditions": "COS-7 nuclear extract on double-stranded Agilent 4x180k PBM; binding buffer, salt, pH and temperature not given; high values mean tight binding; double strand, one strand shown; sequences stand for … in …GCCTAGGGAGATTAGAGTATCGGTCGA"}
{"sequence": "TCCTTCAAAGATTGTGAGACAAGAGAAGAG", "binding signal (log2 normalized intensity)": -1.21}
{"sequence": "TAAATAAAGTGGTAGCCCACAATCAGTCTG", "binding signal (log2 normalized intensity)": -0.683}
{"sequence": "CCACTGTTCTCTCTAGAGAGAACAGATCTT", "binding signal (log2 normalized intensity)": -0.63}
{"sequence": "AGTCCCTGAGTATTATCTTTTTAATCAATA", "binding signal (log2 normalized intensity)": 0.0567}
{"sequence": "GAGGAATCCCATTCCCTCTAATCTGGGACA", "binding signal (log2 normalized intensity)": -0.632}
{"sequence": "CATGGATGACCTCTTTTAGTAACTGACTTT", "binding signal (log2 normalized intensity)": 1.62}
{"sequence": "AGCTCGCTCAGCTGGTTGCCCCTTTGACCC", "binding signal (log2 normalized intensity)": 7.89}
{"sequence": "GGGTGAGTGCATGAATCAACTGTTGTGGAC", "binding signal (log2 normalized intensity)": 1.67}
{"sequence": "AACGCTAGACACTGGGGACTAGTAGAGTGG", "binding signal (log2 normalized intensity)": -1.16}
{"sequence": "TGTCTTTTCTCCCCTGACTACCAGCCAGTA", "binding signal (log2 normalized intensity)": 1.3}
{"sequence": "AGGAATCCTGACCAGGGGCCAGCAAGAGGT", "binding signal (log2 normalized intensity)": -1.13}
{"sequence": "GGAAGGGCTTTATGACCAGTGTGTTGTGCT", "binding signal (log2 normalized intensity)": 1}
{"sequence": "GATGTTGGGAGGAGTGGACTTTGATCTCAG", "binding signal (log2 normalized intensity)": 8.9}
{"sequence": "AAAGAGACATCTGGGAACAAGTTCTGCAGA", "binding signal (log2 normalized intensity)": -1.21}
{"sequence": "GGTCCCTGGAGATAATAGTGGCTGAAAGTA", "binding signal (log2 normalized intensity)": -1.04}
{"sequence": "CAGTGAACAAAACATGGATTTTGGAGCCAA", "binding signal (log2 normalized intensity)": 0.372}
{"sequence": "GTTAGACTACTTATCTCCAAGACCCTTCAT", "binding signal (log2 normalized intensity)": -0.7}
{"sequence": "TTTCAATTACAAAGCAACACAATGCATATC", "binding signal (log2 normalized intensity)": -0.588}
{"sequence": "CATCTGCCCAGCAGAGCAGTTTAGAGAAAG", "binding signal (log2 normalized intensity)": -1.15}
{"sequence": "ATCTAAGCTGGACTTTGAACTTCATGTGTG", "binding signal (log2 normalized intensity)": 7.91}
{"sequence": "CCAAAGTCCAAAGTCCAGTCTTATCTGAGA", "binding signal (log2 normalized intensity)": 7.12}
{"sequence": "TTATAATCGCAGAATAAACGCTGAAGTCTC", "binding signal (log2 normalized intensity)": -0.997}
{"sequence": "AGGCTGAGCCTAGGAGTTCAATGCTTCAGT", "binding signal (log2 normalized intensity)": -0.824}
{"sequence": "TTAGGGGTTAGGGTTAGGGTTAGGGTTACG", "binding signal (log2 normalized intensity)": 1.29}
{"sequence": "CCACATTCTCCACTGGGAAGTAGAAGAAAG", "binding signal (log2 normalized intensity)": -1.11}
{"sequence": "TTGATCAAAGGTTGGACTGAGGACCACATG", "binding signal (log2 normalized intensity)": 1.87}
{"sequence": "CCAGAGCCAAAGGGCATATTGACTGCCCCA", "binding signal (log2 normalized intensity)": 2.24}
{"sequence": "CTGTTCTGTTCCCTGGACTCAGCTCCCATA", "binding signal (log2 normalized intensity)": 1.12}
{"sequence": "TTATGAGGCCTAACTGGCTTTGTCTGCTCA", "binding signal (log2 normalized intensity)": -0.507}
{"sequence": "CGAGTCCCTGCTGTGTCACGTACCGGCTAG", "binding signal (log2 normalized intensity)": -0.974}
{"sequence": "GTGTGCTTTGTAGCACTTTGGACCTCCACT", "binding signal (log2 normalized intensity)": 4.25}
{"sequence": "GAAGACTTCGCTGGAATGTCACAGGGATTA", "binding signal (log2 normalized intensity)": -1.01}
{"sequence": "GGTCCTACTCACACTCAAGGCAAGAGAGTC", "binding signal (log2 normalized intensity)": -1.08}
{"sequence": "TGAGGCCAGACAGGGGGGCGCCTACGGACG", "binding signal (log2 normalized intensity)": -1.23}
{"sequence": "GAAACAGTCACAGTTATCAGACAGAGGAAT", "binding signal (log2 normalized intensity)": -1.16}
{"sequence": "AACAAATCCAGGCAGGACTCTGTCCTGGGC", "binding signal (log2 normalized intensity)": -0.976}
{"sequence": "CCATCAAGGATCAAGGACCTGCTCTGGGGC", "binding signal (log2 normalized intensity)": -1.07}
{"sequence": "TCTTTCTCCAACTGCTCCTCTTCAACTGAT", "binding signal (log2 normalized intensity)": 0.529}
{"sequence": "AGATGAAAGCTTCTGCGGAAATAATTGATT", "binding signal (log2 normalized intensity)": -1.05}
{"sequence": "AAGACCCAAGGCGTATGAAGCTTTGACCCT", "binding signal (log2 normalized intensity)": 4.42}
